This list was built around the results that the source calls inconclusive (neither active nor inactive); the mix of calls is not that of the screen. No potency is given beside an inconclusive call; the fits are too rough. Active and inactive are the calls of the source. The call rests on the fitted dose curve; in most records, active means well fitted curve in the direction sought with a large enough effect; inconclusive means small, poorly fitted or top-dose-only effect, or another doubt; inactive means no such curve, though single readings can be large; an effect the other way counts as inactive or inconclusive.
target: Glutaminase kidney isoform, mitochondrial (Homo sapiens) (UniProt O94925); experiment: qHTS for Inhibitors of Glutaminase (GLS): LOPAC Validation (AID 624146); conditions: glutaminase enzyme activity inhibition; series mostly up to 46.1 µM; further: nearly all actives have a fitted effect of over 60% in size
In short: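 Read-out is an Amplex red fluorescence increase coupled through glutamate oxidase and HRP, measured before and after 30 min room-temperature incubation. hKGA is in 45 mM KH2PO4 (pH 8.2) with 0.02% Tween-20; glutamine added as 1mM solution.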
Potency means the concentration at half of the fitted maximal effect; tags describe the fitted curve by direction and shape.

UniProt O94925, sequence (O94925 whole entry, looked up, canonical isoform): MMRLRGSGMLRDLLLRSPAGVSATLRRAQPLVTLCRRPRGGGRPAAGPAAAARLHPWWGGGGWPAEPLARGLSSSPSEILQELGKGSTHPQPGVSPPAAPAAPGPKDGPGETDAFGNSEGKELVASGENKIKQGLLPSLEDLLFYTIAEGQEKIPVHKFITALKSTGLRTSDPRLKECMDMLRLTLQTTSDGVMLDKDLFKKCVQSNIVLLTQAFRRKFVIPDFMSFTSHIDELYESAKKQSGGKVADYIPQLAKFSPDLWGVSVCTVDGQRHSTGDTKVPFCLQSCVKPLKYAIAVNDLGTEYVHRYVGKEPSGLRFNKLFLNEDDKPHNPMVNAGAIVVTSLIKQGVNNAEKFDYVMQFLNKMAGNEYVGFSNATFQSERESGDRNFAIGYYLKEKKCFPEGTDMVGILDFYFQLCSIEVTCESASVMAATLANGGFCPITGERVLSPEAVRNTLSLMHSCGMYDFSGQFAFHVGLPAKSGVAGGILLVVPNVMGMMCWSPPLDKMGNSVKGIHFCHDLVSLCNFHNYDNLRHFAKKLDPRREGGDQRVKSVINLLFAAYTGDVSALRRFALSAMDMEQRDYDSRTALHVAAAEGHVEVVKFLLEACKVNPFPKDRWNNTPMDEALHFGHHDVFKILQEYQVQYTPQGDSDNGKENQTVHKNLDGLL

| SMILES | Potency |
| --- | --- |
| CC(CCc1ccccc1)NC(C)C(O)c1ccc(O)cc1 (stereo not given) | inconclusive [inhibitor, full curve, poor fit] |
| c1ccc(CCCN2CCN(CCOC(c3ccccc3)c3ccccc3)CC2)cc1 | inactive |
| Oc1ccc2c3c1O[C@H]1c4[nH]c5c(c4C[C@@]4(O)[C@@H](C2)N(CC2CC2)CC[C@]314)C[C@@]1(O)[C@H]2Cc3ccc(O)c4c3[C@@]1(CCN2CC1CC1)[C@H]5O4 | active: 12.6 µM |
| N#C/C(=C/c1ccc(O)c(O)c1)C(N)=S | inconclusive [inhibitor, full curve, poor fit] |
| Cc1ccc(S(=O)(=O)N[C@@H](CCCCN)C(=O)CCl)cc1 | inconclusive [inhibitor, full curve] |
| CC1=NN=C(c2ccc(N)cc2)c2cc3c(cc2C1)OCO3 | inconclusive [inhibitor, partial curve] |
| CCC1(C2=NCCN2)Cc2ccccc2O1 (stereo not given) | inconclusive [inhibitor, single point] |
| NC(N)=Nc1ccc2[nH]c3c(c2c1)C[C@@]1(O)[C@H]2Cc4ccc(O)c5c4[C@@]1(CCN2CC1CC1)[C@H]3O5 | inconclusive [inhibitor, partial curve, poor fit] |
| CNCC(O)c1ccc(O)cc1 (stereo not given) | inconclusive [inhibitor, partial curve, poor fit] |
| O=c1[nH]oc2c1CCNC2 | inactive |
| CC[C@@H](CO)NC(=O)[C@@H]1C=C2c3cccc4c3c(cn4C)C[C@H]2N(C)C1 | inconclusive [inhibitor, partial curve, poor fit] |
| COc1cc(C(O)CN)ccc1O (stereo not given) | active: 2.24 µM |
| CC(Cc1ccc(O)cc1)NCC(O)c1cc(O)cc(O)c1 (stereo not given) | active: 4.47 µM |
| Cc1c(C(=O)c2cccc3ccccc23)c2cccc3c2n1[C@H](CN1CCOCC1)CO3 | inconclusive [inhibitor, partial curve] |
| C[N+](C)(C)CC#CCOC(=O)Nc1cccc(Cl)c1 | inactive |
| CCCN1CCC[C@@H]2Cc3[nH]ncc3C[C@H]21 | inactive |

system: not listed separately; experiment: qHTS of Trypanosoma Brucei Inhibitors: LOPAC Validation (AID 624147); conditions: purified enzyme assay, luminescence, 45 min; series mostly up to 57.5 µM
In short: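 Activity of T. brucei pyruvate kinase was followed by Kinase-Glo Plus luminescence after the enzyme reacted 45 min at room temperature with 130 uM ADP (final) and substrate. Test compounds were added before ADP at multiple concentrations.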

| SMILES | Potency |
| --- | --- |
| CN(N=O)c1ccc(O)c(O)c1 | inconclusive [inhibitor, partial curve] |
| NC(N)=Nc1ccc2[nH]c3c(c2c1)C[C@@]1(O)[C@H]2Cc4ccc(O)c5c4[C@@]1(CCN2CC1CC1)[C@H]3O5 | inactive |
| CN(N=O)c1cc(O)ccc1O | inconclusive [inhibitor, partial curve] |
| CCCN1CCC[C@@H]2Cc3[nH]ncc3C[C@H]21 | inactive |

Reference: PubChem BioAssay (NCATS)
